Data: publication PMC4336329 (PLoS ONE, 2015)
The whole screen tested about 310,000 compounds, of which about 2,200 (0.71%) showed an effect of 50% or more. The effect is printed as a negative number. This is one part of the list.

target: human ether-à-go-go-related gene (hERG) potassium channel (human, UniProt Q12809); assay: primary screen, population patch clamp on CHO cells stably expressing hERG
Sequence (Q12809 whole entry, looked up): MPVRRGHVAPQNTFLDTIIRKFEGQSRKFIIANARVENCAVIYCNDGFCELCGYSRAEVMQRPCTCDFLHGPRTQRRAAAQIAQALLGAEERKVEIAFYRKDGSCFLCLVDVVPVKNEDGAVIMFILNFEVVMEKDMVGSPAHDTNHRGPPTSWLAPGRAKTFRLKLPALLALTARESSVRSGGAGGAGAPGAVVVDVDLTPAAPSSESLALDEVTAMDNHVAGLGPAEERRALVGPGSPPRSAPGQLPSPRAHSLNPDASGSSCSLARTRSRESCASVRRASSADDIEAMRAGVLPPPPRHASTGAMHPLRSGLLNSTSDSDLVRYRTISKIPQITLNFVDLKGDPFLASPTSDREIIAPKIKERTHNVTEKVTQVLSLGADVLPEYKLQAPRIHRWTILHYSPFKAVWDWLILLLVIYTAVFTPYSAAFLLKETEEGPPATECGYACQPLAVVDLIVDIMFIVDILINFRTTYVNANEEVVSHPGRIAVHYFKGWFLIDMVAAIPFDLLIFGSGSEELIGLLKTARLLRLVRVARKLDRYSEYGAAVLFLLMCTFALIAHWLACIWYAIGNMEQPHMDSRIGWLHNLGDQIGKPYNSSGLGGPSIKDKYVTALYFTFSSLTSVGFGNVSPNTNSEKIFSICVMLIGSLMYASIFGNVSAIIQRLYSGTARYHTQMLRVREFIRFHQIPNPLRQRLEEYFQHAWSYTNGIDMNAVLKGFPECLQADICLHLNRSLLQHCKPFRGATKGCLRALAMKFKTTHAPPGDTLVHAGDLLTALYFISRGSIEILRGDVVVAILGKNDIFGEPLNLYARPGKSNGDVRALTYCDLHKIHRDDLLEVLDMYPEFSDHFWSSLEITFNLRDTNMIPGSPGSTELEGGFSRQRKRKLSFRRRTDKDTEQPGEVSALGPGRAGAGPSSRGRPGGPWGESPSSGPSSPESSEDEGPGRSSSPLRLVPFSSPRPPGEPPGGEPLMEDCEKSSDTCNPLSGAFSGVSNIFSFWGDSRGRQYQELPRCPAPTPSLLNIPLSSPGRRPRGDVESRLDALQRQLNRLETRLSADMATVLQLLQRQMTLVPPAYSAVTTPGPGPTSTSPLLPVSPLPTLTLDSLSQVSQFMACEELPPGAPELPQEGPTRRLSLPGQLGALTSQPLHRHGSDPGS

Row | Compound | hERG current change (%, negative = inhibition) at 1uM
1 | Cc1cccc(NC(=O)COC(=O)CCCC2=NS(=O)(=O)c3ccccc3N2)c1 | 11.9%
2 | COc1ccc(C(CC(=O)c2ccccc2)CC(=O)c2ccccc2)cc1 | 7.56%
3 | COc1cccc(COC(=O)c2ccc(S(=O)(=O)N3CCC(C)CC3)cc2)c1OC | 15.2%
4 | Cc1ccc(Nc2nc(CSc3nnc(-c4ccccc4C)n3C)cs2)cc1 | 0.526%
5 | CCCCCn1c(=O)c(C(=O)OCC)c(Cl)c2ccccc21 | 17.8%
6 | COC(OC)c1ccc(C#N)c(=O)[nH]1 | 9.77%
7 | COCCCNC(=S)Nc1ccc(S(=O)(=O)Nc2cc(OC)nc(OC)n2)cc1 | -3.02%
8 | CCC(CC)NCc1ccc2c(c1)c1ccccc1n2CC.O=C(O)C(=O)O | 8.46%
9 | Brc1ccc(-c2noc3c2-c2nc(-c4ccccc4)sc2CC3)cc1 | 9.83%
10 | Cc1cc(NC(=O)CCCn2nc([N+](=O)[O-])c(Cl)c2C)no1 | 10.1%
11 | CCC(=O)n1nc(-c2ccc(Cl)cc2)nc1SC | 12.3%
12 | O=C(NCCc1ccccc1)C(=O)NCC1OCCN1S(=O)(=O)c1ccc(Cl)cc1 (stereo not drawn) | 13.5%
13 | CC(=O)c1ccc(N2CCN(C(=S)Nc3cccc(F)c3)CC2)cc1 | 8.38%
14 | CC(C)[C@H](NC(=O)OC(C)(C)C)C(=O)NCC1CCC(C(=O)N[C@@H](Cc2ccccc2)C(=O)O)CC1 (stereo partly drawn) | 8.89%
15 | COc1ccc2[nH]c(=O)c(CNC3CCCCC3)cc2c1 | 2.1%
16 | Fc1ccc(COc2ccc(Cl)cc2/C=N/Nc2nc(N3CCCC3)nc(N3CCCC3)n2)cc1 | -1.58%
17 | C=CCn1c(=O)/c(=C2/Sc3ccccc3N2CC)s/c1=C1/C(=O)NN=C1C | 16.4%
18 | CCCC/C(O)=C1\C(=O)CCCC1=NCCc1c(C)[nH]c2ccccc12 | 0.821%
19 | Cc1ccc(OC(=O)C(F)(F)F)c2c1NCCC2 | -7.8%
20 | FC(F)(F)c1cccc(-c2ccn3ncnc3n2)c1 | 5.81%
21 | O=C(N[C@@H](Cc1ccccc1)C(=O)O)c1cccnc1 | 10.8%
22 | COc1ccccc1C(=O)NC(=O)COC(=O)CN1C(=O)NC2(CCCCC2C)C1=O (stereo not drawn) | -1.66%

Row | Compound | hERG current change (%, negative = inhibition) at 1uM
23 | CC(C)CN(C(=O)CN1CCN(c2ccc(O)cc2)CC1)c1c(N)n(CC(C)C)c(=O)[nH]c1=O | 19.1%
24 | Cc1[nH]n(-c2cccc(Cl)c2)c(=O)c1C=NCc1ccco1 | 8.62%
25 | CCCOC(=O)c1cc(=O)[nH]c2ccccc12 | 5.09%
26 | Cc1ccc(NC(=O)n2ncc3c(C)cccc32)cc1F | 19.5%
27 | CCc1ccc(N2CCN(CCNC(=O)Nc3ccccc3)CC2)cc1 | 12.4%
28 | Cn1nnnc1Sc1c(Cl)cccc1[N+](=O)[O-] | 9.05%
29 | CS(=O)(=O)N1CCN(c2ccc([N+](=O)[O-])c(NCc3ccccc3)c2)CC1 | 7.2%
30 | Cc1ccc(S(=O)(=O)N2CCN(S(=O)(=O)N3CCOCC3)CC2)c(C)c1 | 7.27%
31 | O=C(Nc1c2c(nn1-c1ccc(F)cc1)CSC2)c1ccc(S(=O)(=O)N2CCOCC2)cc1 | -7.15%
32 | COc1ccc(OC)c(-n2c(SCC(C)=O)nnc2-c2cccc(S(=O)(=O)N(C)C)c2)c1 | -2.1%
33 | Cc1sc2c(c1C)CN(CCN1CCOCC1)CN2C(=O)c1ccccc1 | 17.5%
34 | C=CCSc1nc2ccccc2n1C(=O)/C=C/c1ccc(OC)c(OC)c1 | -4.26%
35 | Cc1ccc(CN2CCNC(=O)C2CC(=O)NCCCn2cccn2)o1 (stereo not drawn) | 6.47%
36 | CN(C)CCCNC(=S)/N=c1\sccn1Cc1ccccc1Cl | -0.0435%
37 | Nc1ccccc1SCC(=O)Nc1ccc2c(c1)OCCO2 | 11.9%
38 | Cc1ccsc1CN(C)C(=O)CN1C(=O)NC(c2ccccc2)(c2ccccc2)C1=O | -1.56%
39 | CC(C)c1ccccc1OCC(=O)Nc1cc(S(=O)(=O)N2CCOCC2)ccc1N1CCCC1 | 10.4%
40 | O=C(CSc1nc2cc(Cl)ccc2s1)NCc1ccc2c(c1)OCO2 | 3.04%
41 | Cc1cccc(NC(=O)CCNC(=O)c2ccccc2Cl)n1 | 8.39%
42 | COC(=O)CSc1nnc2c3c4c(sc3nc(-n3nc(C)cc3C)n12)COC(C)(C)C4 | 12.8%
43 | Brc1ccc(-c2nnc(-c3ccco3)o2)cc1 | -4%
44 | O=c1[nH]c(NCCO)nc2ncn(Cc3ccccc3)c12 | 21.8%

Row | Compound | hERG current change (%, negative = inhibition) at 1uM
45 | COc1cc(NC(=O)COC(=O)c2ccc(C)c(S(=O)(=O)N3CCCCC3)c2)c(C)cc1[N+](=O)[O-] | 9.19%
46 | Cc1ccc(C(=O)N2CC(C)OC(C)C2)cc1S(=O)(=O)N1CCCCC1 (stereo not drawn) | 11.7%
47 | COc1cc(NC(=S)NCCSc2ccc(C)cc2)cc(OC)c1 | 5.75%
48 | Oc1cnc2ccccc2c1CN1CCOCC1 | 21.2%
49 | Cc1ccc(NC(=O)Cn2cc(C(=O)C3CC3)c3ccccc32)cc1 | 16.1%
50 | COc1ccc(Br)cc1S(=O)(=O)N(CC(=O)N1CCOCC1)c1ccccc1 | -22.2%
51 | O=C(Nc1ccn(Cc2ccccc2)n1)c1ccc(F)cc1 | 16.4%
52 | Cc1cc(-c2nc(C)c(C(=O)NNS(=O)(=O)c3ccccc3)s2)no1 | 16.7%
53 | O=C(NCCc1cccc(Cl)c1)c1ccc(Cl)c([N+](=O)[O-])c1 | -0.411%
54 | CC(=O)NC(Cc1cccc(F)c1)C(=O)NC1CCN(C(=O)c2ccc(C)cc2)CC1 (stereo not drawn) | 22.1%
55 | Cc1nc(C(C)NC(=O)c2ccc(OC3CCN(Cc4ccccn4)CC3)cc2)c(C)s1 (stereo not drawn) | 7.38%
56 | CCOc1ccc(NCc2nnc(SCc3ccc(Cl)cc3)n2-c2ccccc2)cc1 | 15.2%
57 | CN1CCC(n2nccc2N)CC1 | 16.4%
58 | COc1ccccc1N(CC(=O)N(CC(C)C)CC(C)C)S(=O)(=O)c1cccs1 | 8.07%
59 | CCOCCCn1c(=S)[nH]c2cc(C(=O)NCCc3ccccc3)ccc2c1=O | 12.9%
60 | CC12CCC(C(=O)N/N=C/c3ccc(O)cc3O)(OC1=O)C2(C)C (stereo not drawn) | 12.4%
61 | Cc1nc(SC(C)C(=O)Nc2c(C)n(C)n(-c3ccccc3)c2=O)nc(C)c1C (stereo not drawn) | 4.82%
62 | O=C(COc1ncnc2ccccc12)Nc1cc([N+](=O)[O-])ccc1F | 1.17%
63 | CC(=O)Nc1sc2c(c1C(c1ccncc1)N1CCOCC1)CCCC2 (stereo not drawn) | 7.4%
64 | Cc1cc2oc(=O)cc(CN3CCCCC3C)c2cc1C(C)C (stereo not drawn) | -6.44%
65 | CCN(CC(=O)Nc1ccccc1C(F)(F)F)C(=O)c1ccc(N2C(=O)CCC2=O)cc1 | 11%
66 | CCCCN1C(=O)NC(=O)C2(Cc3ccccc3N3CCOCC32)C1=O (stereo not drawn) | 20.9%

Row | Compound | hERG current change (%, negative = inhibition) at 1uM
67 | Cc1ccn2c(=O)c(NC(=O)c3cccc4ccccc34)c(C)nc2c1 | 14.6%
68 | CCNC(=O)NCc1c(C)c(C)n(Cc2ccccc2)c1-n1cccc1 | 2.48%
69 | Cc1ccc(S(=O)(=O)Nc2ccc(NC(=O)/C=C/C(=O)O)cc2)cc1 | 6.47%
70 | Cc1[nH]nc2c1C(c1ccsc1)C1=C(CC(C)(C)CC1=O)N2 (stereo not drawn) | 23.7%
71 | S=C(NCc1ccc(Cl)cc1)NCc1ccco1 | 16.5%
72 | Cc1cccc(NC(=O)c2ccccc2OCC(=O)c2ccc(F)cc2)c1 | 2.1%
73 | CC1CCCC(NC(=O)CCNC(=O)c2ccccc2Cl)C1C (stereo not drawn) | 7.25%
74 | CCOCCCNC(=O)NC(=O)CN1CCN(S(=O)(=O)c2ccc3c(c2)OCCO3)CC1 | 8.73%
75 | COC(=O)c1cn(NC(=O)c2ccc([N+](=O)[O-])c(C)c2)c(=O)c2ccccc12 | -3.22%
76 | CNC(=O)C(=O)Nc1cc2c3c(c1)CCC(=O)N3CCC2 | 5.98%
77 | O=C(NC1=NCCS1)c1cccc(F)c1 | 13.3%
78 | NC(=O)CCN1CCN(Cc2nc(C(c3ccccc3)c3ccccc3)no2)CC1 | 12.6%
79 | COc1ccccc1/C=C/CN1CC(C)OC(C)C1 (stereo not drawn) | 7.99%
80 | Cc1nc2sccn2c1P(c1c(C)nc2sccn12)c1c(C)nc2sccn12 | 6%
81 | CC(NC(=O)c1cc(S(=O)(=O)N2CCOCC2)ccc1F)c1ccc(-n2ccnc2)cc1 (stereo not drawn) | -24.6%
82 | COC(=O)C1=CN(C2CC2)C=C(C(=O)OC)C1c1ccccc1OC | -5.84%
83 | Cc1cccc(/C=N/NC(=O)c2ccc(F)cc2)n1 | 13%
84 | COc1ccc(/C=N/NC(=O)Cn2c(Cc3ccc(OC)c(OC)c3)nc3ccccc32)cc1OC | 15.3%
85 | O=C(c1ccc(CS(=O)Cc2ccc(Cl)cc2)o1)N1CCN(c2ccc(F)cc2)CC1 (stereo not drawn) | -11.6%
86 | Cc1ccc(N(C)S(=O)(=O)c2c[nH]c3ccc([N+](=O)[O-])cc23)cc1 | 19.3%
87 | COc1ccc(Nc2oc(COc3ccc(C)cc3)nc2C#N)cc1 | -18.4%
